# Laboratory results reported in PubChem BioAssay (Tox21).
# Activity calls are given as the source filed them. Unless noted, calls come from the whole dose curve; as a rule, active = well fitted curve in the direction sought with a large enough effect in the repeat runs; inconclusive = weak or mixed curves; inactive = no such curve, though single readings can be large; an effect the other way counts as inactive or inconclusive.
# Experiments:
# [1] = qHTS assay for small molecule agonists of the p53 signaling pathway (AID 651631; calls by dose curve; note: nearly all actives have a fitted effect of over 15% in size; note: potency is the fitted concentration of half-maximal effect; for activation: % is set by controls: 0 for no effect and ±100 for the full control effect); details: HCT-116 p53RE-bla reporter, beta-lactamase FRET ratio, 16 h; activation: at 73.3 µM (top of the series) unless noted
# Summary of the method: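 HCT-116 cells carrying a beta-lactamase reporter under p53 response elements were dosed with compound for 16 h at 37 °C. LiveBLAzer B/G FRET substrate was then added for 2 h at room temperature, and fluorescence intensity was read to detect pathway agonism.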
# [2] = qHTS assay for small molecule agonists of the p53 signaling pathway - cell viability (AID 651633; calls by dose curve; note: % is set by controls: 0 for no effect and ±100 for the full control effect; nearly all actives have a fitted effect of over 30% in size)
# Summary of the method: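 Viability counter-read: CellTiter-Glo luminescence (30 min, room temperature) in the same p53RE-bla plates. These plates had been exposed to compounds for 16 h at 37 C.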
# [3] = target: Glucocorticoid receptor (Homo sapiens) (UniProt P04150); assay: qHTS assay to identify small molecule antagonists of the glucocorticoid receptor (GR) signaling pathway (AID 720692; active = well fitted inhibition curve with a large enough effect in the signal ratio in the repeat runs, not every such curve was filed as active; inconclusive = weak or mixed curves, or effect the other way; inactive = no such curve, though single readings can be large or run the other way; the % refers to the signal ratio; note: potency is the fitted concentration of half-maximal effect); details: GR-bla HeLa, beta-lactamase FRET ratio, dexamethasone-stimulated, 18 h; activity change, negative = inhibition: at 58.5 µM (top of the series) unless noted
# Summary of the method: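 Inhibition of dexamethasone-driven (5 nM final) beta-lactamase expression was measured in GRE-reporter HeLa cells over 18 h at 37C. Fluorescence was read after 2 h with the B/G FRET substrate at room temperature.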
# [4] = qHTS assay to identify small molecule antagonists of the thyroid receptor (TR) signaling pathway - cell viability counter screen (AID 743064); details: GH3.TRE-Luc viability, CellTiter-Fluor, 24 h; activity change, negative = cytotoxic: at 70.3 µM (top of the series) unless noted; note: potency is the fitted concentration of half-maximal effect; nearly all actives have a fitted effect of over 50% in size
# Summary of the method: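 GH3.TRE-Luc rat pituitary cells dosed after 4 hr plating, co-stimulated with T3 at 1 nM final, incubated 23.5 h at 37 C. Viability measured in the same wells by CellTiter-Fluor fluorescence after 30 min further at 37 C.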
# [5] = target: Estrogen receptor (Homo sapiens) (UniProt P03372); assay: qHTS assay to identify small molecule agonists of the estrogen receptor alpha (ER-alpha) signaling pathway (AID 743075; calls by dose curve; note: potency is the fitted concentration of half-maximal effect); details: HEK293 ER-alpha-UAS-bla, beta-lactamase FRET ratio, 18 h; activation: at 70.1 µM (top of the series) unless noted
# [6] = target: Estrogen receptor (Homo sapiens) (UniProt P03372); assay: qHTS assay to identify small molecule agonists of the estrogen receptor alpha (ER-alpha) signaling pathway using the BG1 cell line (AID 743079); details: BG1Luc4E2 cells, ERE-luciferase agonist, 22 h; activation: at 70.3 µM (top of the series) unless noted; note: nearly all actives have a fitted effect of over 20% in size; note: potency is the fitted concentration of half-maximal effect
# [7] = target: Acetylcholinesterase (Homo sapiens) (UniProt P22303); assay: Acetylcholinesterase (AChE) small molecule antagonists: enzyme-based qHTS assay with human liver microsomes (AID 1347399; calls by dose curve; note: % is set by controls: 0 for no effect and ±100 for the full control effect; nearly all actives have a fitted effect of over 60% in size); details: Potency: qHTS inhibition
# Summary of the method: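 Recombinant human AChE (50 mU/mL in the enzyme mix) and human liver microsomes (0.25 mg/mL final) were preincubated with compound and NADPH (0.25 mg/mL final) for 30 min at 37 C. Acetylthiocholine/DTNB was then added; thiocholine was read colorimetrically after 10 min at room temperature.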
# [8] = qHTS assay for identifying genotoxic compounds that show differential cytotoxicity against isogenic chicken DT40 cell lines with known DNA damage response pathways - Rad54/Ku70 mutant cell line (AID 743015); details: DT40 Rad54/Ku70 mutant viability, CellTiter-Glo, 40 h; activity change, negative = cytotoxicity: at 66.8 µM (top of the series); note: potency is the fitted concentration of half-maximal effect; nearly all actives have a fitted effect of over 60% in size
# [9] = qHTS assay to identify small molecule antagonists of the estrogen receptor alpha (ER-alpha) signaling pathway - cell viability counter screen (AID 743074; calls by dose curve; note: % is set by controls: 0 for no effect and ±100 for the full control effect; nearly all actives have a fitted effect of over 45% in size)
# [10] = qHTS assay for small molecule disruptors of the mitochondrial membrane potential (AID 720635); details: HepG2 mitochondrial membrane potential, Mito-MPS dye ratio; ratio activity, negative = MMP loss: at 83.2 µM (top of the series) unless noted; note: potency is the fitted concentration of half-maximal effect
# Summary of the method: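 Mitochondrial membrane potential tracked with Mito-MPS dye, red aggregates (ex 540/em 590 nm) against green monomers (ex 490/em 535 nm). Compound treatment 1 hr at 37C, dye 30 min in HepG2.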
# [11] = qHTS assay for identifying genotoxic compounds that show differential cytotoxicity against isogenic chicken DT40 cell lines with known DNA damage response pathways - Rev3 mutant cell line (AID 743014); details: chicken DT40 Rev3-/- viability, CellTiter-Glo, 40 h; activity, negative = cytotoxicity: at 68.4 µM (top of the series); note: potency is the fitted concentration of half-maximal effect; nearly all actives have a fitted effect of over 55% in size
# [12] = target: Androgen receptor (Homo sapiens) (UniProt P10275); assay: qHTS assay to identify small molecule agonists of the androgen receptor (AR) signaling pathway (AID 743036; active = well fitted activation curve with a large enough effect in the signal ratio in the repeat runs, with a control signal flat, not every such curve was filed as active; inconclusive = weak or mixed curves, or effect the other way; inactive = no such curve, though single readings can be large or run the other way; the % refers to the signal ratio; note: % is set by controls: 0 for no effect and ±100 for the full control effect); details: HEK293 AR-UAS-bla GripTite, beta-lactamase FRET ratio, 16 h; activation: at 62.4 µM (top of the series) unless noted
# Summary of the method: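 AR-UAS-bla HEK293 cells, plated 4 h before dosing, were treated with compound for 16 h at 37C. beta-Lactamase reporter read after 2 h with LiveBLAzer B/G FRET substrate at room temperature.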
# [13] = qHTS assay to test for compound auto fluorescence at 535 nm (green) in HepG2 cells (AID 720675); details: green autofluorescence 485/535 nm, 1 h; note: potency is the fitted concentration of half-maximal effect
# Source text: National Center for Advancing Translational Sciences [NCATS]
# NIH Chemical Genomics Center [NCGC]
# U.S. Environmental Protection Agency [EPA]
# National Institutes of Environmental Health Sciences [NIEHS]
# National Toxicology Program [NTP]
# U.S. Food and Drug Administration [FDA]
# Compound auto fluorescence often interferes with screening of the compound library against various biological targets and signaling pathways. Some of these compounds may have fluorophoric properties. Such properties may interfere with the assay outputs resulting in false positives and/or negatives. To decrease such complications and ensure the compound activities are relevant in terms of biological response, the Tox21 10K compound library was screened for auto fluorescence.
# From the fluorophores used as reporter signals in our screening assays, the auto fluorescence equivalencies of compounds against three fluorophores have been evaluated: Triamterene, Fluorescein and Rose Bengal sodium for blue, green and red fluorescence, respectively. The fluorescence intensities were measured using Excitation/Emission wavelengths at 405/460nm, 485/535nm and 540/590nm for blue, green and red labels, respectively. This assay includes the green fluorescence data.
# Tox21 Assay Protocol Summary: […]
# [14] = qHTS assay to test for compound auto fluorescence at 535 nm (green) in HepG2 cell free culture (AID 720686); note: potency is the fitted concentration of half-maximal effect
# [15] = target: Glucocorticoid receptor (Homo sapiens) (UniProt P04150); assay: qHTS assay to identify small molecule agonists of the glucocorticoid receptor (GR) signaling pathway (AID 720691; active = well fitted activation curve with a large enough effect in the signal ratio in the repeat runs, not every such curve was filed as active; inconclusive = weak or mixed curves, or effect the other way; inactive = no such curve, though single readings can be large or run the other way; the % refers to the signal ratio; note: % is set by controls: 0 for no effect and ±100 for the full control effect); details: GR-bla HeLa, beta-lactamase reporter ratio, 18 h; activation: at 62.4 µM (top of the series) unless noted
# Summary of the method: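 Agonist-mode qHTS in HeLa cells stably expressing a glucocorticoid-response-element beta-lactamase reporter. Fluorescence intensity read with FRET substrate (2 h, room temperature) after 18 h compound treatment at 37 C.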
# [16] = target: Androgen receptor (Homo sapiens) (UniProt P10275); assay: qHTS assay to identify small molecule antagonists of the androgen receptor (AR) signaling pathway (AID 743035; active = well fitted inhibition curve with a large enough effect in the signal ratio in the repeat runs, not every such curve was filed as active; inconclusive = weak or mixed curves, or effect the other way; inactive = no such curve, though single readings can be large or run the other way; the % refers to the signal ratio; note: potency is the fitted concentration of half-maximal effect); details: HEK293 AR-UAS-bla, R1881-stimulated, beta-lactamase FRET, 16 h; activity change, negative = inhibition: at 58.5 µM (top of the series) unless noted
# Summary of the method: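 Antagonist mode: AR-bla HEK293 cells co-treated with test compounds and agonist R1881 for 16 h at 37C, 5% CO2. Beta-lactamase activity read as FRET fluorescence after 2 h room-temperature substrate loading.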
# [17] = qHTS assay to identify small molecule antagonists of the thyroid receptor (TR) signaling pathway (AID 743065); note: potency is the fitted concentration of half-maximal effect; nearly all actives have a fitted effect of over 55% in size
# Summary of the method: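 Antagonism measured as loss of luciferase signal in GH3 cells stably carrying a TRE-luciferase reporter, co-treated with compound and T3 (1 nM final) for 23.5 h at 37 C. Viability was read in the same well by CellTiter-Fluor.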
# [18] = system: thyroid hormone receptor (rat, GH3 cells); assay: qHTS assay to identify small molecule agonists of the thyroid receptor (TR) signaling pathway (AID 743066; calls by dose curve; note: % is set by controls: 0 for no effect and ±100 for the full control effect); details: GH3.TRE-Luc cells, TR agonist luciferase, 24 h; activation: at 83.9 µM (top of the series) unless noted
# [19] = target: Estrogen receptor (Homo sapiens) (UniProt P03372); assay: qHTS assay to identify small molecule antagonists of the estrogen receptor alpha (ER-alpha) signaling pathway (AID 743069; active = well fitted curve in the direction sought with a large enough effect in the signal ratio in the repeat runs, not every such curve was filed as active; inconclusive = weak or mixed curves, or effect the other way; inactive = no such curve, though single readings can be large or run the other way; the % refers to the signal ratio; note: potency is the fitted concentration of half-maximal effect); details: HEK293 ER-alpha-UAS-bla, beta-lactamase ratio, antagonist mode; activity, negative = inhibition: at 69.4 µM (top of the series) unless noted
# Summary of the method: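 Fluorescence intensity from a beta-lactamase FRET substrate served as the read-out. Cells: HEK293 with stably integrated ER-alpha-UAS-bla reporter. Agonist 17beta-estradiol was co-added with compounds; incubation 18 hr at 37C, substrate 2 hr at room temperature.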
# [20] = qHTS assay to identify small molecule antagonists of the estrogen receptor alpha (ER-alpha) signaling pathway using the BG1 cell line - cell viability counter screen (AID 743081); details: BG1Luc4E2 viability, CellTiter-Fluor, 22 h; activity change, negative = cytotoxicity: at 70.3 µM (top of the series);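 note: compound given together with 17beta-estradiol as the ER stimulus; potency is the fitted concentration of half-maximal effect; nearly all actives have a fitted effect of over 45% in size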
# Aromatase (Homo sapiens) = Aromatase (Homo sapiens) (UniProt P11511); assay: qHTS assay to identify aromatase inhibitors (AID 743083); note: potency is the fitted concentration of half-maximal effect; nearly all actives have a fitted effect of over 55% in size
# [21] = qHTS assay to identify aromatase inhibitors - cell viability counter screen (AID 743084); details: MCF-7 aro ERE viability, CellTiter-Fluor, 24 h; activity change, negative = cytotoxicity: at 70.3 µM (top of the series);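 note: cells stimulated with testosterone during compound exposure; potency is the fitted concentration of half-maximal effect; nearly all actives have a fitted effect of over 55% in size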
# [22] = qHTS assay to identify small molecule that activate the aryl hydrocarbon receptor (AhR) signaling pathway - cell viability counter screen (AID 743086); note: potency is the fitted concentration of half-maximal effect; nearly all actives have a fitted effect of over 45% in size
# Summary of the method: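 Cytotoxicity counter screen: CellTiter-Fluor signal (30 min, 37 C) in 4000 HepG2 cells/well carrying the DRE-luciferase reporter, following 24 h compound exposure at 37 C.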
# Tags give direction and shape of the fitted curve or compound fluorescence and quenching.
# UniProt P10275, sequence (P10275 whole entry, looked up): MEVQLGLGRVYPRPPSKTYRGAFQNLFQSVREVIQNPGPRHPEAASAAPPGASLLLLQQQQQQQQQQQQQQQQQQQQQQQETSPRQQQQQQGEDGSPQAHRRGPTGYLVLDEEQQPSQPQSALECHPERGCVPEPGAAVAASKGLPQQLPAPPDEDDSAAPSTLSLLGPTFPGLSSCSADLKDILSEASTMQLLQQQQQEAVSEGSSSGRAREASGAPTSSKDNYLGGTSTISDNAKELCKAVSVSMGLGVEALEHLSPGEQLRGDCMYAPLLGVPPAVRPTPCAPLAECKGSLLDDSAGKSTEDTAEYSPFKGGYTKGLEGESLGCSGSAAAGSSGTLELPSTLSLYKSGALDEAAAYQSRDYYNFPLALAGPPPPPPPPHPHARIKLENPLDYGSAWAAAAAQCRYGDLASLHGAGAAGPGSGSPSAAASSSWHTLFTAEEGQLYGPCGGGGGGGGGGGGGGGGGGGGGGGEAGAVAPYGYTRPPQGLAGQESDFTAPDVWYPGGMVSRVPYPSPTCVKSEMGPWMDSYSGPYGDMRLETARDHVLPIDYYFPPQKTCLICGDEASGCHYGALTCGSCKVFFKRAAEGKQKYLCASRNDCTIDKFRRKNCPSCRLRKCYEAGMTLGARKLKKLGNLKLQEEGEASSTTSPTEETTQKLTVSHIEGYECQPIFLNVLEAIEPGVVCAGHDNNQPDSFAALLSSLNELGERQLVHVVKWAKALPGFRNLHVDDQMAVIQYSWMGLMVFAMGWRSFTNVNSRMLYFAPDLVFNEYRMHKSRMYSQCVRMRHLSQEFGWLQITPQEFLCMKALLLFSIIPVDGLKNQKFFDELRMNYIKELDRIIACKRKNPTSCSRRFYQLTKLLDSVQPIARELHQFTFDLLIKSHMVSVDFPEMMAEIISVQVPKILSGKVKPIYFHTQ
# UniProt P04150, sequence (P04150 whole entry, looked up): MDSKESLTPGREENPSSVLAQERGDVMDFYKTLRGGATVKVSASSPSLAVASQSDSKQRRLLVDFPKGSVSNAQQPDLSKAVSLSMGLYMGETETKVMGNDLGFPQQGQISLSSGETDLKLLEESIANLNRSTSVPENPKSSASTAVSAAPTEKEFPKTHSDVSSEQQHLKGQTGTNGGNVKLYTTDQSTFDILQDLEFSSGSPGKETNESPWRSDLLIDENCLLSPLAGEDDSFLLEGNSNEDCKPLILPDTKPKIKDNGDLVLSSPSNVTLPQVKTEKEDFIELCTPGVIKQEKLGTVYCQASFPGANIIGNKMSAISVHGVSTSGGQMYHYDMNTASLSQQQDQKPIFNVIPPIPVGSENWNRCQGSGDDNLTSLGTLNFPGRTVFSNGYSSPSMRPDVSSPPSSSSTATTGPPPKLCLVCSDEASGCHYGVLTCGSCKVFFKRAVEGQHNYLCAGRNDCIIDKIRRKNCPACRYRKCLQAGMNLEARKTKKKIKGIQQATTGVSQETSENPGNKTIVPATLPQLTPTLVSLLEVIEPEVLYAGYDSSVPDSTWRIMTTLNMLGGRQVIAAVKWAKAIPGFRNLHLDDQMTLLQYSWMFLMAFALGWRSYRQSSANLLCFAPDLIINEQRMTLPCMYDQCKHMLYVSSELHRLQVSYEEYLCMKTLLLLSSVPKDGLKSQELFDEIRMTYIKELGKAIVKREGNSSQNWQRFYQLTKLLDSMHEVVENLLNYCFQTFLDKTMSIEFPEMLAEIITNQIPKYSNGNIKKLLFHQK
# UniProt P03372, sequence (P03372 whole entry, looked up): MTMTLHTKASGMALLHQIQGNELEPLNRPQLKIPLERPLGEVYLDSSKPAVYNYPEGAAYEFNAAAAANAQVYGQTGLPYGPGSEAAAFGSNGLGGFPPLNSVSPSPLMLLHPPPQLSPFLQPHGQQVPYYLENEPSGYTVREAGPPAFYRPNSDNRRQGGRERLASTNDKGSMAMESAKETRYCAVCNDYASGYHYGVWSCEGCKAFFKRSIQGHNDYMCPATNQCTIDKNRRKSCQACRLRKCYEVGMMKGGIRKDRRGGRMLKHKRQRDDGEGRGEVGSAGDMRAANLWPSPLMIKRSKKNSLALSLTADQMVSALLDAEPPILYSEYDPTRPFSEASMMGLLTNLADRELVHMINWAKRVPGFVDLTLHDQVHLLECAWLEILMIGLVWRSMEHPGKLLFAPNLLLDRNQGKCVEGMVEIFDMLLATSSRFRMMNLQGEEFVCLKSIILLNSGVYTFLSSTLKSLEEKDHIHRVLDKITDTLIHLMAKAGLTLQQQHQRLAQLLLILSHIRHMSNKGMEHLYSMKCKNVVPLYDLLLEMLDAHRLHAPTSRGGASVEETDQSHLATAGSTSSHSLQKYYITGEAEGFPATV
# UniProt P22303, sequence (P22303 whole entry, looked up): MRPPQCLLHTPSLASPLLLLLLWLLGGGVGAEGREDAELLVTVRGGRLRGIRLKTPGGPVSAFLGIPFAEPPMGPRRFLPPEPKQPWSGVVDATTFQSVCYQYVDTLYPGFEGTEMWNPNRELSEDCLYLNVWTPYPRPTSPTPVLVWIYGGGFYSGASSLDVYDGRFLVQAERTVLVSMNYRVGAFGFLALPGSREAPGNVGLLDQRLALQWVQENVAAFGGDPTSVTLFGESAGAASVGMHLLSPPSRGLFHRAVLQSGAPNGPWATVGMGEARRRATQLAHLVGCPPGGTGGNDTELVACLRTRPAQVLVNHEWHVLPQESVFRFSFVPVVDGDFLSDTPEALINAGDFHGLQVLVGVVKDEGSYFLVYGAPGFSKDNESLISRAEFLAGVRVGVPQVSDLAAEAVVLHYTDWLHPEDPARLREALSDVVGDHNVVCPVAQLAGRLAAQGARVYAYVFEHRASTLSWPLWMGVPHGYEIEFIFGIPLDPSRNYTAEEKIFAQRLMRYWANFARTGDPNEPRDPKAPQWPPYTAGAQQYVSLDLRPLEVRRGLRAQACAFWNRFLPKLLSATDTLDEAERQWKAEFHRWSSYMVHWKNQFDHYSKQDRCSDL
# UniProt P11511, sequence (P11511 whole entry, looked up): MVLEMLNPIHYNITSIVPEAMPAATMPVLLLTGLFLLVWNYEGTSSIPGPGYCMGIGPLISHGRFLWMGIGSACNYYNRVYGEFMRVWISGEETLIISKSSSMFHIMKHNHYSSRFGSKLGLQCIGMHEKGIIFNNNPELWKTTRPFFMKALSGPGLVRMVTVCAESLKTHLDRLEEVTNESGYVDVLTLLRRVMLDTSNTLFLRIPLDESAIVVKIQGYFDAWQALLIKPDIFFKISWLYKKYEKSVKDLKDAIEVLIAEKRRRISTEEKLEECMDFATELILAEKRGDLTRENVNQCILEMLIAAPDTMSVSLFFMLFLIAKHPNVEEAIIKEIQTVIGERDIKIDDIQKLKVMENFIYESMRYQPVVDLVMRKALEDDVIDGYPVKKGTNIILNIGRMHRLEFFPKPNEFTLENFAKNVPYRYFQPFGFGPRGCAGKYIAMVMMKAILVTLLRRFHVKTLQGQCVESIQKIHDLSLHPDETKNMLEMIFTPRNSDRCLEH
smiles,measurement,setting,value
CCCCCCCCCC(=O)O[C@H]1CC[C@H]2[C@@H]3CCC4=CC(=O)CC[C@]4(C)[C@H]3CC[C@]12C,Potency,[1],"inconclusive: 33.5 µM [activator, single point]"
same,Potency,[2],inactive
same,Potency,[3],"inconclusive: 8.49 µM [inhibitor, single point]"
same,Potency,[4],"inconclusive: 2.66 µM [rising, partial curve, poor fit]"
same,Potency,[5],active: 10.7 µM [inconclusive]
same,Potency,[6],active: 335 nM
O=C(c1ccccc1)c1ccccc1O,Potency,[7],inactive
Cc1ccc(C)cc1,Potency,[1],inactive
O=C(CCl)c1ccc(Oc2ccc(C(=O)CCl)cc2)cc1,Potency,[1],inconclusive: 33.5 µM [activator]
same,Potency,[8],"inconclusive: 33.5 µM [cytotoxic, single point]"
same,Potency,[9],inactive
same,activation,[6],inconclusive: 14.4% [phenotype inactive]
O=C1CCCCC1CN1CCCCC1 (stereo not drawn),Potency,[1],inactive
same,Potency,[10],inactive
same,Potency,[11],"inconclusive: 33.5 µM [cytotoxic, single point]"
same,Potency,[8],"inconclusive: 33.5 µM [cytotoxic, single point]"
same,Potency,[12],inactive
N#CC(C#N)=Cc1cc(O)c(O)c(O)c1,Potency,[1],inactive
same,Potency,[10],active: 5.96 µM
same,Potency,[13],"inconclusive: 20 µM [rising, partial curve, poor fit]"
same,Potency,[14],"inconclusive: 28.2 µM [fluorescent, partial curve, poor fit]"
same,Potency,[15],inactive
same,Potency,[3],"inconclusive: 26.8 µM [inhibitor, single point]"
same,Potency,[16],"inconclusive: 10.7 µM [rising, single point]"
same,activation,[12],inconclusive: 18.6%
same,Potency,[17],"inconclusive: 33.5 µM [inhibitor, single point]"
same,Potency,[18],inactive
same,Potency,[19],"inconclusive: 9.52 µM [activator, full curve]"
same,Potency,[6],inactive
same,Potency,[20],"inconclusive: 29.8 µM [cytotoxic, single point]"
same,Potency,Aromatase (Homo sapiens),inconclusive: 33.5 µM [inhibitor]
same,Potency,[21],active: 26.6 µM
same,Potency,[22],active: 13.3 µM
